This passage reports binding results from publication PMC8976878.

Chains of the proteins cited; added tags and fusions are not shown. Lines headed by an entry give the natural chain unless they say otherwise; changes in a name come on top. A line that says so, or that is headed by a name, gives the form on record, which may keep a tag or linker.
UniProt P21333: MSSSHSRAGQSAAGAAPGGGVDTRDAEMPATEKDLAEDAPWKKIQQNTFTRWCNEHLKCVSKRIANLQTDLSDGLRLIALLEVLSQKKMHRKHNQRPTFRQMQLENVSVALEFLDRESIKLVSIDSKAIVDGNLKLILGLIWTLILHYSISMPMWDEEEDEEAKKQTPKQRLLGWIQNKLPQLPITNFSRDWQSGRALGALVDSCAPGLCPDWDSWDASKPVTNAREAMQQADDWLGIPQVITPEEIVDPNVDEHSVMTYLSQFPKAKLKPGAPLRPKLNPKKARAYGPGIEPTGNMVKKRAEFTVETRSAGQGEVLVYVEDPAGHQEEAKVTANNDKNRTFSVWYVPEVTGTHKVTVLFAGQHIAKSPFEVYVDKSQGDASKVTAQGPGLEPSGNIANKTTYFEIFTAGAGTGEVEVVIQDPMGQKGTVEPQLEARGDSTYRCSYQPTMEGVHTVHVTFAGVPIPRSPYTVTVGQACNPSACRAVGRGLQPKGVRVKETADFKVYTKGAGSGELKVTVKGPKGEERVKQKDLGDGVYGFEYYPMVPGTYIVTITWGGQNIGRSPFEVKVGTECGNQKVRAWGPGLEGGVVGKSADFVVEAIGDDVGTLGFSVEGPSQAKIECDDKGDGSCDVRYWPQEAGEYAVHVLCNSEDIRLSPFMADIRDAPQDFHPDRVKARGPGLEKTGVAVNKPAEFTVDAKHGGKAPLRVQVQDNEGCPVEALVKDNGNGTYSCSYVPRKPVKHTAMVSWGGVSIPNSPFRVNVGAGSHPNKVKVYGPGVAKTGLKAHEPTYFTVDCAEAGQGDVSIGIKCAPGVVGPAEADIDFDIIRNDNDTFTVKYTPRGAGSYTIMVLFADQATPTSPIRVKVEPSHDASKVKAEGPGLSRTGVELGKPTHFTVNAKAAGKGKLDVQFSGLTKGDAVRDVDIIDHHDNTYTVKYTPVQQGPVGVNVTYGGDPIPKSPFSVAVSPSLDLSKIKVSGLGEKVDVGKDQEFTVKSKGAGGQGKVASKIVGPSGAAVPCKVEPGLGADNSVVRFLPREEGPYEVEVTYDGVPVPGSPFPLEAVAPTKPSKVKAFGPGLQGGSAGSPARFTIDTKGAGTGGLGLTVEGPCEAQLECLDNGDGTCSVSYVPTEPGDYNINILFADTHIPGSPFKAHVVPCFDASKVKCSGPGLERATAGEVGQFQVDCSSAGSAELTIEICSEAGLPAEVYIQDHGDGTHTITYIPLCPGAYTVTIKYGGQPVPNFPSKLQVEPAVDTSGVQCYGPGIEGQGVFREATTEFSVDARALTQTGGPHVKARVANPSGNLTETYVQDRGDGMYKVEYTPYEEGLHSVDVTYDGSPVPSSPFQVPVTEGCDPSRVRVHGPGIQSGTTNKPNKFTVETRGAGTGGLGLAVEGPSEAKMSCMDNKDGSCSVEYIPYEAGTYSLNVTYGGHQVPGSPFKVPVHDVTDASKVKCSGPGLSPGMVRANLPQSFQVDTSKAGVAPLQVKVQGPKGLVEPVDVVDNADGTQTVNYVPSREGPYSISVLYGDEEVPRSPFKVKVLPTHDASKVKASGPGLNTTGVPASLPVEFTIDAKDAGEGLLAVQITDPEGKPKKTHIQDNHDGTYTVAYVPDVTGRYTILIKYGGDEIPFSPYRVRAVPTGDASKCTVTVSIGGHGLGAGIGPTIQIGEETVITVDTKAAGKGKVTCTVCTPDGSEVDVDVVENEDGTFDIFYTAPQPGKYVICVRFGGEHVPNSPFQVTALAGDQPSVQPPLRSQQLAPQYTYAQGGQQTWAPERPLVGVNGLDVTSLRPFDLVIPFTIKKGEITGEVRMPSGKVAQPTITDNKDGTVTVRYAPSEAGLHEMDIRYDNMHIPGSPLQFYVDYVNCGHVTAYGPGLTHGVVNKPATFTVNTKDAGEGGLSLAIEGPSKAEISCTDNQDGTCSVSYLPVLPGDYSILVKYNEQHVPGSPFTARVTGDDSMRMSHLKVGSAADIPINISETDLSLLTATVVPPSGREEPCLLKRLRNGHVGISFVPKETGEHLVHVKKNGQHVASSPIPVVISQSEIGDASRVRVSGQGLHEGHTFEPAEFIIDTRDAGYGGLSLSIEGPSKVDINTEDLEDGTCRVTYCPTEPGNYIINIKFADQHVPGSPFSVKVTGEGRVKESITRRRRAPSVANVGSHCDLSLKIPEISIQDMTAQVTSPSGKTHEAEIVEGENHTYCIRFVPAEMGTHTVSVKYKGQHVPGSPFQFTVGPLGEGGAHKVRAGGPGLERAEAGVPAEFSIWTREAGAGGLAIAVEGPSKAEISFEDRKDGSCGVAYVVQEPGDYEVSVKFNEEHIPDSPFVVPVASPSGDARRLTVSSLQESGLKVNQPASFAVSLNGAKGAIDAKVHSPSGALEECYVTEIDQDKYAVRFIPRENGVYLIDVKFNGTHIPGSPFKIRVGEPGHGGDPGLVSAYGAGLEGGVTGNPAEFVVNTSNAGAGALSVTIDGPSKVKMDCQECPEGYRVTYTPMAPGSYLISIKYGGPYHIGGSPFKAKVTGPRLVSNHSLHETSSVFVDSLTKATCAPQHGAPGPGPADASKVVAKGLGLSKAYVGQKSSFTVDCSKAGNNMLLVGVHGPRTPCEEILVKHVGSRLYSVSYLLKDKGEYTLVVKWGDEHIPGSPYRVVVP
UniProt P13569: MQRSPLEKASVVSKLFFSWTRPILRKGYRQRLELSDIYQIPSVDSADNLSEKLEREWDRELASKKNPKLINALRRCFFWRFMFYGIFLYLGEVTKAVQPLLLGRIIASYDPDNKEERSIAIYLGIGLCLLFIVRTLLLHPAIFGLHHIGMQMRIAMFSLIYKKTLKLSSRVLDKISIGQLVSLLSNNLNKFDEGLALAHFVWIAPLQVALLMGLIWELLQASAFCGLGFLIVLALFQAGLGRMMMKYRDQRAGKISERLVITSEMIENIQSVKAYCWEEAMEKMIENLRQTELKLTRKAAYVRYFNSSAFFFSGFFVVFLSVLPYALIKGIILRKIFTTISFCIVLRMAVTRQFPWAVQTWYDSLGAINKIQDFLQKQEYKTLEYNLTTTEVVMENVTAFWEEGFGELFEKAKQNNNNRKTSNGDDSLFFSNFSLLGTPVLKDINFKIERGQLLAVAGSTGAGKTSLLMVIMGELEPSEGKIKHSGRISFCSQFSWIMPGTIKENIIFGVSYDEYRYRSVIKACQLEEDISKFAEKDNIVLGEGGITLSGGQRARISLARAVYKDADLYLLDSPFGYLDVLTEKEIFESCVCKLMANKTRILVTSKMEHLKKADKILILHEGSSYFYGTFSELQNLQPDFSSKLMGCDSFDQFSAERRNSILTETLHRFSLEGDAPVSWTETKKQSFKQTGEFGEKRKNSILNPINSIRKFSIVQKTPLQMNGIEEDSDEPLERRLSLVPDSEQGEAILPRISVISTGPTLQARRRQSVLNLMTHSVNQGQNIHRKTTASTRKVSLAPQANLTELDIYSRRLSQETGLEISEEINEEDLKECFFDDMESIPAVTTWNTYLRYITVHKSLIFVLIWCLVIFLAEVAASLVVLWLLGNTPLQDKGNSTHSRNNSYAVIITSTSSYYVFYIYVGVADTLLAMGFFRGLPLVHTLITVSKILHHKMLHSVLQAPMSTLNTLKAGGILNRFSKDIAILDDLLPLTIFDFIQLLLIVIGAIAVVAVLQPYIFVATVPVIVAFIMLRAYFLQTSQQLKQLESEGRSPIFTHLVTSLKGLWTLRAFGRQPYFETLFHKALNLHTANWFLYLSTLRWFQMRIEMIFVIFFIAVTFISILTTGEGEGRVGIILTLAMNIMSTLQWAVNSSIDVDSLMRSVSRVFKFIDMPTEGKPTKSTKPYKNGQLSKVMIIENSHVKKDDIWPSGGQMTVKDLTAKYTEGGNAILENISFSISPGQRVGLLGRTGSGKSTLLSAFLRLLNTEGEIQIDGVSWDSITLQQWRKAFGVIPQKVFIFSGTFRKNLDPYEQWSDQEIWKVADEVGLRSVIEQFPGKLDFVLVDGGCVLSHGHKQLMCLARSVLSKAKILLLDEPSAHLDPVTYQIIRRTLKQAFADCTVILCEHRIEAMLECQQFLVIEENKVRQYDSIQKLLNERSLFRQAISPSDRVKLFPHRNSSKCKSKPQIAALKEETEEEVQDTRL
F508del-CFTR (EGFP–F508del-CFTR) (P13569, form named): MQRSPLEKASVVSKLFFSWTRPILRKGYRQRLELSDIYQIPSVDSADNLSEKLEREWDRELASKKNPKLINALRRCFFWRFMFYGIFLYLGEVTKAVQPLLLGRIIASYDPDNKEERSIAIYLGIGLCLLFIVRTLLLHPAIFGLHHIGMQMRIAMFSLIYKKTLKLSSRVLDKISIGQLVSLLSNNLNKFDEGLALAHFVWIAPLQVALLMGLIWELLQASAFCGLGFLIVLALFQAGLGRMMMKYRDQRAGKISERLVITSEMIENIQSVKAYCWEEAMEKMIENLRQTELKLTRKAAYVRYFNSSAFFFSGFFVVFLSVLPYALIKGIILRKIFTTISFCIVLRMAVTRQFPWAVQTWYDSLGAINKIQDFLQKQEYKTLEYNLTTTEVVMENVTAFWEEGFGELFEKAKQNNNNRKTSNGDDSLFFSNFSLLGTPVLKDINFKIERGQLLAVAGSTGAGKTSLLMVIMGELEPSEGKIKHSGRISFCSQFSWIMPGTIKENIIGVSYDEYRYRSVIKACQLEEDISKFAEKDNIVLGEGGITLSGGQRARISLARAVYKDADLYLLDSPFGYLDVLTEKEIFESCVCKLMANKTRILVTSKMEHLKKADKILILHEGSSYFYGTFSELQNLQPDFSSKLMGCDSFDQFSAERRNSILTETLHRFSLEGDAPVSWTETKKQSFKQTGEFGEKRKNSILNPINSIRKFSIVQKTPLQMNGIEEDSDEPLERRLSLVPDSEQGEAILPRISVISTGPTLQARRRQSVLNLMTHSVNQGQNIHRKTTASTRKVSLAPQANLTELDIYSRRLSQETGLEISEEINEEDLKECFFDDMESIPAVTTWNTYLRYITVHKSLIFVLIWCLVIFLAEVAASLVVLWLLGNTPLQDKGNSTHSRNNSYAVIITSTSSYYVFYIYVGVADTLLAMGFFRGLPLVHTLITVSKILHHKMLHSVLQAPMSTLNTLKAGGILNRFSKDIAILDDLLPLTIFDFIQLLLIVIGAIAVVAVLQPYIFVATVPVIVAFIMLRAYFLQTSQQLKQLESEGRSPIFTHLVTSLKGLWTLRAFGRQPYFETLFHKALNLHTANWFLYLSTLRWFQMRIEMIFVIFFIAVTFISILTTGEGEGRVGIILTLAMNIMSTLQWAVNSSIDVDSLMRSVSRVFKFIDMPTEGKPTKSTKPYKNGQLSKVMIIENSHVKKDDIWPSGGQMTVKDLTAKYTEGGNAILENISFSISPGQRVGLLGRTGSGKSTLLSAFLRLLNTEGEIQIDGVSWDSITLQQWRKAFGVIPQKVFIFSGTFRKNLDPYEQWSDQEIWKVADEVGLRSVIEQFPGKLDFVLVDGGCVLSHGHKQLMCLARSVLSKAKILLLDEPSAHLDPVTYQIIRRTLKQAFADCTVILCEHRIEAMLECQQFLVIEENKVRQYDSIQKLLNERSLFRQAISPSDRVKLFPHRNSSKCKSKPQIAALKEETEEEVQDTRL

Results are given in words; binding and its absence hold for the method and conditions named. Binding seen in cells or lysates may run through a third protein. Some entries that bind do so weakly or less than the wild type.

Test [1] has as its target Filamin A (human (endogenous in primary HBE cells)) (UniProt P21333). Description: condition: only cells without VX-445 plus VX-661 or low temperature; co-IP; lysates of CF HBE cells transduced with CFTR adenoviruses (50 MOI), no corrector treatment; lysis in 150 mM NaCl, 1 mM EDTA, 50 mM Tris-HCl pH 7.4, 0.5% Triton X-100; IP with rabbit anti-FLNA antibody and Protein G Sepharose at 4°C; blot with anti-CFTR antibody 596.

For test [2] the target is unchanged. Description: co-IP; as a1, but cells exposed to VX-445 (3 μM) plus VX-661 (3 μM), or kept at low temperature (29°C), for 24 h before lysis; IP with rabbit anti-FLNA antibody, blot with anti-CFTR antibody 596.
The target is the same in test [3]. Description: co-IP; lysates of CF HBE cells transduced with CFTR adenoviruses (50 MOI), no corrector treatment; lysis in 150 mM NaCl, 1 mM EDTA, 50 mM Tris-HCl pH 7.4, 0.5% Triton X-100; IP with rabbit anti-FLNA antibody and Protein G Sepharose at 4°C; blot with anti-CFTR antibody 596.

In the case of “S13F-CFTR (EGFP–S13F-CFTR) (from UniProt P13569 1-1480)”, the binding entry in test [1] was “no binding”; in test [2] it was “binds”.
For the substance “wild-type cystic fibrosis transmembrane conductance regulator (EGFP–wt-CFTR) (from UniProt P13569 1-1480)”, the binding entry in test [3] is “binds”.
Regarding “F508del-CFTR (EGFP–F508del-CFTR) (from UniProt P13569 1-1480)”, the binding result in test [1] is “no binding”; in test [2], “binds”.
